In ChEMBL document CHEMBL1157539, “Thousands of chemical starting points for antimalarial lead identification” (Nature, 2010):
In all, about 13,000 compounds were measured (“IFI”: median about 4, highest 2% from about 17 on). The list shows a part of the results.

Assay: GSK_TCMDC: Inhibition Frequency Index (IFI). The number of non-kinase HTS assays where a compound showed > 50 % inhibition, expressed as a percentage of the number of such assays in which the compound was tested (-0 is zero)
Assay type: functional

SMILES | IFI [%]
O=C(NC1CCN(Cc2ccc(O)cc2)CC1)c1ccc(Cl)c(Cl)c1 | 3.45
c1ccc(Oc2cccc(Nc3ccnc4ccccc34)c2)cc1 | 8.03
CN(C)CCN(C)Cc1ccc(-c2cccc(-c3nc4ccccc4[nH]3)c2)cc1 | 2.91
O=C(Nc1ccc(C(F)(F)F)cc1)c1ccc(S(=O)(=O)NC2CCCN(CC3CCCCC3)C2)cc1 (configuration not stated) | 4.82
CC1(C)[C@H]2CC[C@@H](CNc3nc(NCCc4c[nH]cn4)nc(Nc4ccc5c(c4)OCO5)n3)[C@@H]1C2 | 1.49
COc1cc(SC)c(Br)cc1-c1nc2ccncc2[nH]1 | 2.78
CC(C)N1CCCN(C(=O)C2CCN(c3ccc(C(=O)N4CCCC4)cn3)CC2)CC1 | -0
OCCN1CCN(Cc2ccc(-c3cccc(-c4nc5cc(F)ccc5[nH]4)c3)cc2)CC1 | 3.92
O=C(c1ccccc1)N(Cc1ccccc1-c1ccc(CNCCc2ccccc2)cc1)C1CCN(Cc2ccccc2)CC1 | 11
Cc1cccc(NC(=O)c2ccc(C(=O)NC3CCN(CC4CCCCC4)C3)cc2)c1 (configuration not stated) | 1.8
CCOC(=O)c1[nH]c2ccc(F)cc2c1NC(=O)CN1CCN(c2cccc(C(F)(F)F)c2)CC1 | 0.75
Cc1cc(N[C@@H](CC(C)C)C(=O)NC2CCCC2)nc(NCC2CCCCC2)n1 | 4.65
C=CCNS(=O)(=O)c1ccc(NC(=O)C(C)Oc2ccc([N+](=O)[O-])cc2)cc1 (configuration not stated) | 14.8
Cc1cccc2nc(-c3ccc(-c4cccc(CNCCCNS(C)(=O)=O)c4)s3)[nH]c12 | 3.96
CCCCN1CCN(c2cc(NS(=O)(=O)c3ccc(C(=O)Nc4ccc(C(F)(F)F)cc4)cc3)ccc2OC)CC1 | 3.97
OCCN1CCN(Cc2ccc(-c3cccc(-c4nc5cc(C(F)(F)F)ccc5[nH]4)c3)cc2)CC1 | 6.86
COc1ccc2nccc(NCC3(O)CCC(NCc4cc5c(cn4)OCCO5)CC3)c2n1 (configuration not stated) | 0
CC(C)C[C@@H](/C=N/NC(N)=O)NC(=O)[C@H](CC(C)C)NC(=O)[C@H](CC(C)C)NC(=O)OCc1ccccc1 | 10.9
Cc1cc2ncn(-c3nccc(NCc4cccnc4)n3)c2cc1C | 1.55

SMILES | IFI [%]
CC(C)CCn1c(Sc2ccc(C#N)c([N+](=O)[O-])c2)nnc1-c1ccccc1Cl | 8.45
c1ccc2c(C3CCN(CCCCOc4ccc5c(c4)CCN(CC4CC4)CC5)CC3)c[nH]c2c1 | 11
COc1ccc2nccc([C@@H](O)CN3CCC(NC(=O)c4cccc(-c5cc(C)no5)c4)CC3)c2c1 | 2.19
Cc1ccc(-c2nc3cc(NC(=O)c4ccc([N+](=O)[O-])o4)ccc3o2)cc1Cl | 0.72
Clc1ncnc2scc(-c3ccc(Br)cc3)c12 | 3.6
CN1CCN(c2ccc(Nc3ncc(C#N)c(Nc4ccccc4C(N)=O)n3)cc2)CC1 | 14.8
O=C(Nc1cc(F)cc(F)c1)NC1CCN(CCCCCNC(=O)C2CC2c2ccc(Cl)c(Cl)c2)CC1 (configuration not stated) | 11.5
O=C(CN1CCN(C(=O)c2ccco2)CC1)Nc1ccccc1Br | -0
O=C(Nc1ccc(OC(F)(F)F)cc1)NC1CCN(c2ccnc3ccccc23)C1 (configuration not stated) | 7.81
CC(=O)Oc1c(C2CCN(CCCCNC(=O)c3ccc(NC(=O)c4ccc(Cl)cc4)cc3)CC2)ccc2c1CCCC2 | 4.27
Cc1cccc2nc(-c3ccc(-c4cccc(NC(=O)NCc5cccc(F)c5)c4)cc3)[nH]c12 | 5
CN(CCC1CCN(C(=O)/C=C/c2ccc(Cl)c(Cl)c2)CC1)C1CCC(c2c[nH]c3ccccc23)CC1 (configuration not stated) | 9.63
CCN(CC)CCCNCc1ccc(-c2ccc(C(F)(F)F)cc2)cc1 | 7.53
Cc1cccc2nc(-c3ccc(-c4ccc(NC(=O)Nc5ccc(F)c(F)c5F)cc4)s3)[nH]c12 | 7.92
O=C(Cn1cc(C=C2SC(=NC3CCCC3)N(C3CCCC3)C2=O)c2ccccc21)N1CCCC1 | 4.76
CCc1ccc(NC(=O)c2ccc(CN3CCCN(Cc4cccc(O)c4)CC3)cc2)cc1 | 14.5
Cc1[nH]c(C)c(-c2ccc(-c3ccccc3)nc2)c(=O)c1Br | -0
CCN(CCCN1CCCCC1)c1cc(C)nc(Nc2cccc(C(F)(F)F)c2C)n1 | 7.5
O=C(Nc1cccc(-c2ccc(-c3nc4cc(C(F)(F)F)ccc4[nH]3)s2)c1)c1c[nH]cn1 | 3.7

SMILES | IFI [%]
Cc1cc(OCC2CCN(c3ncc(C(=O)NC4CC4)cc3Cl)CC2)ccc1F | 9.8
O=C(Nc1ccccc1Cl)c1cc2ccccc2cc1O | 4.44
FC(F)(F)c1ccc(-c2cncc(-c3ccc(C(F)(F)F)cc3)n2)cc1 | -0
CN(CCCNCc1ccc2ccccc2c1)CCCNCc1ccc2ccccc2c1 | 7.91
Cc1ccc(Cl)cc1NC(=O)c1c(-c2ccccc2Cl)noc1C | 1.48
NS(=O)(=O)c1cccc(-c2ccc3ncc(N4CCOCC4)nc3c2)c1 | 3.7
O=C(/C=C/c1ccc(Cl)c(Cl)c1)NCCCCCN1CCC(NC(=O)NCCc2ccccc2)CC1 | 3.36
Cc1cc(N(C)C)nc(Nc2ccc(NC(=O)c3ccc(F)cc3)cc2)n1 | 5.41
CCN(CC)CCN(Cc1ccc(-c2ccc(C(F)(F)F)cc2)cc1)C(=O)Cn1c(CCc2cccc(F)c2F)nc(=O)c2ccc(C(F)(F)F)cc21 | 4.55
COc1ccc2ncc(F)c(CCN3CC[C@H](NC(=O)c4ccc5c(n4)NC(=O)CS5)[C@H](O)C3)c2n1 | 2.88
C=CCc1cc(C)ccc1OCCCON1C(N)=NC(N)=NC1(C)C | 5.56
CS(=O)(=O)CCNCc1cccc(-c2ccc3c(Nc4cc(O)c(Cl)cc4F)ccnc3c2)c1 | 3.76
COc1cc2nc(N3CCC(C(N)=O)CC3)nc(NCc3ccccc3)c2cc1OC | 1.48
Cc1ccccc1C1CCN(C2CCC(NC(=O)/C=C/c3ccc(OC(F)(F)F)cc3)CC2)CC1 (configuration not stated) | 14.8
Cc1cccc2nc(-c3cccc(-c4ccc(NC(=O)CN5CCOCC5)cc4)c3)[nH]c12 | 0.91
N#Cc1cc([N+](=O)[O-])ccc1-n1nc(-c2cccc(Cl)c2)n(CC2CCCO2)c1=S (configuration not stated) | 0.68
CN1CCC[C@H]1COc1ccc(CN2CC[C@H](NC(=O)c3ccc(Cl)c(Cl)c3)C2)cc1Br | 6.67
CCOC(=O)CN1Cc2cc(NCc3ccc4ccc5nc(C)[nH]c(=O)c5c4c3)ccc2C1=O | 2.26
CCN(CC)CCN(Cc1ccc(-c2ccc(C(F)(F)F)cc2)cc1)C(=O)c1c[nH]c2ccc(Br)cc12 | 10.9
